From the antibiotic and cytotoxicity screens of Wong et al. (2023)
The other results are listed elsewhere or left out.

Tested on: HSkMC (human skeletal muscle cells)
Experiment: cytotoxicity call (relative viability < 0.9)
Details: 10 µM

| Structure (SMILES) | cytotoxicity call |
| --- | --- |
| C[C@@H]1CN([C@@H](C)CO)C(=O)Cc2cc(NC(=O)c3ccncc3)ccc2O[C@@H]1CN(C)Cc1ccc2c(c1)OCO2 | inactive |
| C[C@@H]1CN([C@H](C)CO)C(=O)Cc2cc(N(C)C)ccc2O[C@@H]1CN(C)S(=O)(=O)c1ccc(F)cc1 | inactive |
| Cc1ccc(S(=O)(=O)N[C@H]2CC[C@@H](CC(=O)N3CCC(Cc4ccccc4)CC3)O[C@H]2CO)cc1 | inactive |
| C[C@H](CO)N1C[C@H](C)[C@@H](CN(C)C(=O)c2ccncc2)OCCCC[C@H](C)Oc2ccc(NC(=O)C3CCCCC3)cc2C1=O | inactive |
| COc1ccc(NC(=O)N(C)C[C@@H]2OCCCC[C@@H](C)Oc3ccc(NS(=O)(=O)c4ccc(OC)cc4)cc3C(=O)N([C@H](C)CO)C[C@H]2C)cc1 | inactive |
| O=C(C[C@@H]1C[C@H]2c3cc(NS(=O)(=O)c4ccccc4)ccc3O[C@H]2[C@H](CO)O1)NC1CCCCC1 | inactive |
| Cc1ccc(-n2nnc(C(N)=O)c2C)cc1 | inactive |
| C=c1cc(C)cc(C)c1=C1NN=C(N)S1 | inactive |
| C[C@@H]1CN([C@@H](C)CO)C(=O)c2cc(NC(=O)Cn3cnnn3)ccc2O[C@@H]1CN(C)Cc1ccccc1 | inactive |
| Cc1ccc(S(=O)(=O)Nc2cccc3c2O[C@H](CN(C)Cc2ccc(C(F)(F)F)cc2)[C@@H](C)CN([C@H](C)CO)C3=O)cc1 | inactive |
| OCC(O)C(O)C(OC1OC(CO)C(O)C(O)C1O)C(O)CO (stereo not given) | inactive |
| C[C@H]1CCCCO[C@H](CN(C)C(=O)c2ccccc2)[C@@H](C)CN([C@@H](C)CO)C(=O)c2cc(NS(=O)(=O)c3ccccc3)ccc2O1 | inactive |
| C[C@H]1CN([C@@H](C)CO)C(=O)Cc2cc(NC(=O)CCN3CCOCC3)ccc2O[C@H]1CN(C)C(=O)Nc1ccccc1 | inactive |
| CN1CCN(S(C)(=O)=O)CC1 | inactive |
| C[C@H](CO)N1C[C@H](C)[C@@H](CN(C)S(=O)(=O)c2ccccc2)OCCCC[C@H](C)Oc2ccc(NC(=O)Nc3ccc4c(c3)OCO4)cc2C1=O | inactive |
| C[C@@H]1CN([C@@H](C)CO)S(=O)(=O)c2ccc(C#C[C@@H](C)O)cc2O[C@@H]1CN(C)C(=O)c1ccncc1 | inactive |
| O=c1[nH]cc(NCc2ccccc2)c(=O)[nH]1 | inactive |
| Cc1ccc(S(=O)(=O)Nc2ccc3c(c2)C(=O)N([C@H](C)CO)C[C@H](C)[C@@H](CN(C)S(=O)(=O)c2ccc(F)cc2)OCCCC[C@@H](C)O3)cc1 | inactive |
| COc1cccc(S(=O)(=O)Nc2ccc3c(c2)[C@@H]2C[C@H](CC(=O)NCCc4ccccc4)O[C@H](CO)[C@@H]2O3)c1 | inactive |
| C[C@H](CO)N1C[C@H](C)[C@@H](CN(C)Cc2ccc(-c3ccccc3)cc2)Oc2ccc(NC(=O)Nc3ccc(C(F)(F)F)cc3)cc2CC1=O | active |

| Structure (SMILES) | cytotoxicity call |
| --- | --- |
| CC[C@@H](N)c1nc(C)c(C)s1 | inactive |
| O=C(C[C@H]1CC[C@@H]2[C@H](COC[C@H](O)CN2C(=O)c2ccc3c(c2)OCO3)O1)NC1Cc2ccccc2C1 | inactive |
| C[C@H](CO)N1C[C@H](C)[C@@H](CN(C)Cc2ccc(C(=O)O)cc2)OCCCC[C@H](C)Oc2ccc(NC(=O)Nc3ccc(C(F)(F)F)cc3)cc2C1=O | inactive |
| C#CC[C@H](c1nc2cc(Cl)ccc2c(=O)n1Nc1ccccc1)N(CCCN)C(=O)c1cccc(Cl)c1F | active |
| CN(C)CCN1CCN(C)C2(CCN(C(=O)[C@H]3CCCO3)CC2)C1=O | inactive |
| COCCN(C)C(=O)c1ccc2nnc([C@H]3CN(S(C)(=O)=O)CCN3C)n2c1 | inactive |
| Cn1cc(CN2CCn3nnc(CO)c3C2)cn1 | inactive |
| COc1ccc(CN(C)C[C@@H]2OCCCC[C@@H](C)Oc3ccc(NC(=O)c4ccccc4)cc3C(=O)N([C@H](C)CO)C[C@H]2C)cc1 | inactive |
| O=C(N[C@@H]1CC[C@@H](CCNS(=O)(=O)c2ccccc2)O[C@@H]1CO)c1cnccn1 | inactive |
| COc1ccc(C(=O)C=Cc2ccccc2)cc1 | inactive |
| CC(=O)[C@]1(N)Cc2c(O)c3c(c(O)c2[C@@H](O[C@H]2C[C@H](O)[C@H](O)CO2)C1)C(=O)c1ccccc1C3=O | active |
| C[C@@H]1CN([C@@H](C)CO)S(=O)(=O)c2ccc(C3=CCCC3)cc2O[C@H]1CN(C)C(=O)c1cnccn1 | inactive |
| N[C@@H](Cc1ccc(O)c(O)c1)C(=O)O | inactive |
| COc1ccc(NC(=O)N(C)C[C@H]2Oc3ccc(NC(=O)C4CC4)cc3C(=O)N([C@@H](C)CO)C[C@@H]2C)cc1 | inactive |
| Cc1noc(C)c1NC(=O)N(C)C[C@@H]1Oc2ccc(NC(=O)C3CC3)cc2CC(=O)N([C@@H](C)CO)C[C@H]1C | inactive |
| C[C@H](CO)N1C[C@H](C)[C@@H](CN(C)Cc2ccc(C(F)(F)F)cc2)OCCCC[C@H](C)Oc2ccc(NS(=O)(=O)c3cn(C)cn3)cc2C1=O | inactive |
| Cc1noc(C)c1NC(=O)Nc1cccc2c1O[C@@H](CN(C)C(=O)Nc1cccc3ccccc13)[C@H](C)CN([C@@H](C)CO)C2=O | inactive |
| Cc1cccc(-c2ccc3c(c2)O[C@H](CN(C)Cc2ccc(C(=O)O)cc2)CCN(C(C)C)S3(=O)=O)c1 | inactive |
| C[C@H]1CN([C@@H](C)CO)C(=O)c2cc(NC(=O)CCN3CCOCC3)ccc2O[C@H]1CN(C)CC1CC1 | inactive |
| O=c1[nH]c(=O)c2ccccc2o1 | inactive |
